The campaign covered roughly 390,000 compounds. About 17,000 (4.4%) were called active. This list was built around the results that the source calls inconclusive (neither active nor inactive); the mix of calls is not that of the screen. Calls follow the shape of the dose curve; as a rule, active = well fitted inhibition curve with a large enough effect; inconclusive = small, poorly fitted or top-dose-only effect; inactive = no such curve, though single readings can be large or run the other way. Potencies of inconclusive entries are doubtful fits and often do not repeat.
Each compound was assayed against Lysine-specific demethylase 4A (Homo sapiens) (UniProt O75164) (assay: qHTS Assay for Inhibitors of JMJD2A-Tudor Domain). Conditions: AlphaScreen JMJD2A-Tudor / H3K4me3 peptide binding; activity change, negative = inhibition: at 114 µM (top of the series).
% is scaled to controls: 0 for no effect and ±100 for the full control effect; potency is read from the fitted curve at half-maximal effect; tags tell the direction and shape of the fitted curve.
Also: nearly all actives have a fitted effect of over 50% in size.

Sequence of UniProt O75164 (O75164 whole entry, looked up, the tested form may be a part): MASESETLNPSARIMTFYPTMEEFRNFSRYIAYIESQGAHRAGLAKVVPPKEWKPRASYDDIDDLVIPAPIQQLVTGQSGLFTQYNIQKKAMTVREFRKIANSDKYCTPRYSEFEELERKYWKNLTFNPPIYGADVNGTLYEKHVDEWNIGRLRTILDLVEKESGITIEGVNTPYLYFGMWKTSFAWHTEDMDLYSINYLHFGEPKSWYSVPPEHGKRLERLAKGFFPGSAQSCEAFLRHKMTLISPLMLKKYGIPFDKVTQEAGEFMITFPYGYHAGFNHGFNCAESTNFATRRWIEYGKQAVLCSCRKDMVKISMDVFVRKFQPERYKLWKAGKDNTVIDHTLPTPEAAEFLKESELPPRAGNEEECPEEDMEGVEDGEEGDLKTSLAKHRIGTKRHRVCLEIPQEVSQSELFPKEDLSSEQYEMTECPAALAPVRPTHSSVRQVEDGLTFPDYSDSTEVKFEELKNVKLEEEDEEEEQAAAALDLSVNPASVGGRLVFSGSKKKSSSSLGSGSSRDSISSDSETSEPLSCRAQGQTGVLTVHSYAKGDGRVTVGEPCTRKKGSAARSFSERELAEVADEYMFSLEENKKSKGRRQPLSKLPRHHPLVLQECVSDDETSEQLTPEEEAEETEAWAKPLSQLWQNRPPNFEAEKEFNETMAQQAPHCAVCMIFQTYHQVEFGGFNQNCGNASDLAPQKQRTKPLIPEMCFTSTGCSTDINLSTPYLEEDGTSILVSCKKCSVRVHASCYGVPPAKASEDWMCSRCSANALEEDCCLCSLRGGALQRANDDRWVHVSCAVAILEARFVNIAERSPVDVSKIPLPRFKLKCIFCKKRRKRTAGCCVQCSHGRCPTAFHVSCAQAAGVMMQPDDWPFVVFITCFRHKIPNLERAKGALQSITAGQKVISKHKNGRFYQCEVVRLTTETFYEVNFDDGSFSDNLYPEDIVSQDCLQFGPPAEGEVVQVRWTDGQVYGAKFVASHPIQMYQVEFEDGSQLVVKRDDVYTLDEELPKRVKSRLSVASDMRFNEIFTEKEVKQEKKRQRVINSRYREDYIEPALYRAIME

SMILES	Potency	activity change, negative = inhibition
CCN(CC)c1ccc(NC(=O)Nc2ccccc2)cc1	inconclusive: 56.2 µM [inhibitor, partial curve]	
O=C(Nc1ccccc1)c1ccc(C(=O)Nc2ccccc2)nc1	inconclusive: 14.1 µM [inhibitor, full curve, poor fit]	
Nc1ccc(-c2ncc(-c3ccccc3)o2)cc1	inconclusive: 44.7 µM [inhibitor, partial curve]	
C=CCc1c(C)nc(-c2ccccc2)nc1Nc1ccc(O)cc1	inconclusive: 56.2 µM [inhibitor, partial curve]	
C/C(CC(=O)NCc1ccccc1)=N\NC(N)=S	inconclusive: 3.98 µM [inhibitor, partial curve, poor fit]	
COc1ccccc1N1Cc2ccccc2C1	active: 50.1 µM	
CC1CN(c2nc(Nc3ccccc3)nc(N)c2[N+](=O)[O-])CC(C)O1 (configuration not stated)	inconclusive: 56.2 µM [inhibitor, partial curve]	
COc1ccccc1CNc1nc(-c2cc(C)n(C)c2C)cs1	active: 39.8 µM	
CCn1c(-c2c(Cl)c(C)nn2C)n[nH]c1=S	active: 20 µM	
COc1cc(CN2CCN(S(=O)(=O)c3ccc(NC(C)=O)cc3)CC2)cc(OC)c1OC	active: 22.4 µM	
O=C1N(Cc2ccccc2Cl)c2ccccc2C1(O)c1c[nH]c2ccccc12 (configuration not stated)	inconclusive: 35.5 µM [inhibitor, partial curve]	
Cc1ccc(S(=O)(=O)n2nc(C)c(C#N)c2N)cc1	inconclusive: 35.5 µM [inhibitor, single point]	
CC1CCN(C(=O)CCN2C(=O)/C(=C/c3cccs3)SC2=S)CC1	active: 28.2 µM	
COC(=O)c1sc(N2C(=O)C(O)=C(C(=O)c3ccc(C)o3)C2c2ccc([N+](=O)[O-])cc2)nc1C (configuration not stated)	inconclusive: 50.1 µM [inhibitor, partial curve]	
COc1cccc(C2c3c(ncn(-c4cccnc4)c3=N)Oc3ccc4ccccc4c32)c1 (configuration not stated)	inconclusive: 50.1 µM [inhibitor, partial curve]	
Cc1ccc(CSc2nnc(-c3cccnc3)n2N)cc1		inactive: -4.48%
O=C(CSc1ccccn1)Nc1ccc(F)c([N+](=O)[O-])c1		inactive: -2.8%
Cc1ccc(NC(=S)NCc2ccc3c(c2)OCO3)cc1C	inconclusive: 63.1 µM [inhibitor, single point]	
COc1ccccc1OCc1cc(C(=O)NCc2ccc(N3CCCC3=O)cc2)no1		inactive: -9.03%
Cc1ccc(CNC(=O)CSCc2ccccc2)cc1		inactive: -0.637%
Cc1nonc1OCCN1CCN(c2ccccc2[N+](=O)[O-])CC1	inconclusive: 10 µM [inhibitor, partial curve, poor fit]	
CC(C)CNC(=S)N1CCC(c2nc(-c3ccc(F)cc3)no2)CC1		inactive: 2.26%
CCN(CC)CCCNC(=O)c1nn(-c2ccccc2OC)c(=O)c2ccccc12	inconclusive: 6.31 µM [inhibitor, single point]	
COc1ccc(OC)c(C2CC(c3ccccc3)=NN2C(=S)Nc2ccccc2)c1 (configuration not stated)	inconclusive: 25.1 µM [inhibitor, full curve]	

SMILES	Potency	activity change, negative = inhibition
O=C(NCc1cccs1)c1ccc([N+](=O)[O-])cc1Cl		inactive: -10.3%
O=C1CN(C(=O)COC(=O)c2cccc(S(=O)(=O)NCc3ccccc3)c2)c2ccccc2N1		inactive: -11.5%
CCOc1ccc(S(=O)(=O)N(C)c2ccc(OCC(=O)NCC3CCCO3)cc2)cc1 (configuration not stated)	inconclusive: 100 µM [inhibitor, partial curve, poor fit]	
CCc1c(C)sc2nc3c(C(=O)N4CCOCC4)cc(C(=O)c4cc(F)ccc4O)cn3c(=O)c12	inconclusive: 50.1 µM [inhibitor, partial curve]	
O=C(COc1ccccc1)NNC(=O)COc1ccc([N+](=O)[O-])cc1		inactive: -12.1%
O=C(CCN1C(=O)C2C3CCC(C3)C2C1=O)OCC(=O)c1ccccc1 (configuration not stated)		inactive: -2.13%
CC1CCN(c2ccc(C=O)o2)CC1		inactive: -26.8%
CCOC(=O)c1oc2ccccc2c1CN1CCN(C)CC1	inconclusive: 89.1 µM [inhibitor, single point]	
CCOc1ccc(NC(=O)CSc2oc(-c3ccc(F)cc3)nc2S(=O)(=O)c2ccc(C)cc2)cc1		inactive: 14%
O=C(CCOc1ccccc1)N(Cc1cccnc1)c1nc2ccc(Cl)cc2s1	inconclusive: 100 µM [inhibitor, single point]	
CCOC(=O)c1c(C)[nH]c(C)c1S(=O)(=O)N1CCCC(C(=O)NCc2ccc(N(C)C)cc2)C1 (configuration not stated)	inconclusive: 56.2 µM [inhibitor, partial curve]	
COc1ccc(-n2cc(C(=O)NCCc3cc(OC)ccc3OC)c3ccccc3c2=O)cc1	active: 50.1 µM	
CC1=C(C#N)CCC(=O)N1Cc1c(C)cc(C)cc1C	inconclusive: 89.1 µM [inhibitor, single point]	
COC(=O)C(C)N1C(=O)S/C(=C\c2ccc(-c3ccc(C(=O)O)cc3C)o2)C1=O (configuration not stated)	inconclusive: 56.2 µM [inhibitor, partial curve, poor fit]	
CCOc1ccc(OCCC(=O)NNC(=O)c2nn(C)c(=O)c3ccccc23)cc1	inconclusive: 89.1 µM [inhibitor, single point]	
COc1cccc(-n2c(-c3ccc4[nH]c(C)c(C)c4c3)n[nH]c2=S)c1	inconclusive: 20 µM [inhibitor, full curve]	
COc1ccc(N(CC(=O)N2CCN(c3ccc(Cl)cc3)CC2)S(=O)(=O)c2c(C)n[nH]c2C)cc1	inconclusive: 79.4 µM [inhibitor, partial curve]	
Cc1cc(NC(=O)Cn2nc(C(=O)O)c3ccccc3c2=O)ccc1Br	inconclusive: 100 µM [inhibitor, partial curve]	
O=C(Cc1ccc(Cl)cc1Cl)NCc1cccnc1	inconclusive: 0.708 µM [inhibitor, full curve, poor fit]	
CNC[C@H]1Oc2ccc(NC(=O)Nc3ccc(OC)cc3)cc2C(=O)N([C@@H](C)CO)C[C@H]1C	inconclusive: 39.8 µM [inhibitor, partial curve]	
COc1ccc(NC(=O)c2cn(-c3ccccc3)nc2-c2cc3ccccc3o2)cc1		inactive: 10.6%
COc1ccc(-c2nc3ccccc3n2Cc2ccccc2)cc1COc1ccc(NC(C)=O)cc1	inconclusive: 89.1 µM [inhibitor, partial curve]	
COc1ccc(NC2=CC(c3ccc(OC)cc3)N(c3ccc(OC)cc3)C2=O)cc1 (configuration not stated)	inconclusive: 17.8 µM [inhibitor, full curve]	
CN1C2CCC1/C(=C\c1ccccc1)C(=O)/C2=C\c1ccccc1	inconclusive: 12.6 µM [inhibitor, full curve, poor fit]	

SMILES	Potency	activity change, negative = inhibition
CCOc1nc(Nc2ccc(OC)cc2)nc(OCC)n1	active: 79.4 µM	
Cc1ccc(NC(=O)CCc2nnc3ccc(NCc4ccco4)nn23)nc1	inconclusive: 63.1 µM [inhibitor, partial curve, poor fit]	
CCN(CC)c1ccc(C(=O)NC(=S)N2CCN(Cc3ccc4c(c3)OCO4)CC2)cc1	inconclusive: 17.8 µM [inhibitor, full curve]	
COc1ccccc1NC(=O)c1c(NCc2ccc(C)o2)sc2c1CCCCC2	active: 44.7 µM	
CCOC(=O)N1CCc2c(sc3c2C(=O)NC(c2cc(OC)c(OC)c(OC)c2)N3)C1 (configuration not stated)	inconclusive: 39.8 µM [inhibitor, full curve, poor fit]	
Fc1ccccc1/C=N/N1CCN(Cc2ccccc2Cl)CC1	active: 50.1 µM	
CC(=O)Nc1sc2c(c1C(N)=O)CCC2		inactive: -17.6%
COc1cc(OC)cc(C(=O)NCC(=O)OCC(=O)c2cc(C)n(Cc3ccco3)c2C)c1	inconclusive: 44.7 µM [inhibitor, partial curve]	
O=C(NCc1cccc(CNC(=O)C(=O)NCc2ccco2)c1)C(=O)NCc1ccco1	inconclusive: 25.1 µM [inhibitor, full curve]	
O=C(NC1CCCCCC1)c1ccco1	inconclusive: 56.2 µM [inhibitor, partial curve]	
CCN1C(=O)N[C@@H](CCc2ccccc2)C(C(C)=O)=C1C	inconclusive: 17.8 µM [inhibitor, full curve]	
CCc1ccc(C(=O)NNc2ccc(F)cc2F)cc1	inconclusive: 89.1 µM [inhibitor, single point]	
COc1ccc2c(c1)C=C(CN1CCN(Cc3ccccc3C)C(CCO)C1)CO2 (configuration not stated)	active: 50.1 µM	
Cn1ccnc1C(O)c1ccco1 (configuration not stated)	active: 56.2 µM	
CCOc1ccc(NC(=O)N2CCC(n3c(=O)[nH]c4ccccc43)CC2)cc1		inactive: -15%
CCCCOCCCNC(=O)c1ccc([N+](=O)[O-])c(C)c1	inconclusive: 31.6 µM [inhibitor, single point]	
Cc1ccsc1C=Nc1ccc(O)cc1	active: 79.4 µM	
CCn1c(-c2cc(-c3cc(C)ccc3C)nc3ccccc23)n[nH]c1=S	active: 56.2 µM	
Cc1ccnc(NC(=S)NC(=O)c2cncc(Br)c2)c1		inactive: 2.78%
CCOc1ccc(C2=CS/C(=C(\C#N)c3nnc4n3CCCCC4)N2CC)cc1		inactive: -35%
Cc1ccccc1N/C(=C(/C(Cl)=C(Cl)Cl)[N+](=O)[O-])n1nnc2ccccc21	inconclusive: 63.1 µM [inhibitor, partial curve]	
O=S(=O)(c1ccccc1)N1CCN(c2nc(C3CC3)nc3ccccc23)CC1		inactive: -21.1%
CCN(CC)c1ccc(/C=N/NC(=O)c2cc(C)nc3ccccc23)cc1	inconclusive: 39.8 µM [inhibitor, partial curve]	
CNC(=O)COC(=O)c1cc(-c2ccco2)nc2ccccc12	active: 20 µM	

From PubChem BioAssay AID504339 (National Center for Advancing Translational Sciences (NCATS), 2011)
